Patent publication US20210047304A1, “Bromodomain Inhibitors” (AbbVie Inc., priority 2016, published 2021)

Biological target: BRD4 (BDII_E352-M457) (Homo sapiens, UniProt O60885)
Experiment: TR-FRET bromodomain binding assay, BRD4 BDII

| Ki [nM] | Structure (SMILES) |
| --- | --- |
| 9.01 | Cc1cc(F)cc(C)c1Oc1ccc(C(C)(C)O)cc1-c1cn(C)c(=O)cc1O[C@H]1CC[C@H](N2NCCC2=O)CC1 [Example 109, 5-[2-(4-fluoro-2,6-dimethylphenoxy)-5-(2-hydroxypropan-2-yl)phenyl]-1-methyl-4-{[trans-4-(5-oxopyrazolidin-1-yl)cyclohexyl]oxy}pyridin-2(1H)-one] |
| 2.59 | Cc1cc(F)cc(C)c1Oc1ccc(C(C)(C)O)cc1-c1cn(C)c(=O)cc1O[C@H]1CC[C@H](N2CCOCC2=O)CC1 [Example 40, 4-[trans-4-({5-[2-(4-fluoro-2,6-dimethylphenoxy)-5-(2-hydroxypropan-2-yl)phenyl]-1-methyl-2-oxo-1,2-dihydropyridin-4-yl}oxy)cyclohexyl]morpholin-3-one] |
| 3.46 | Cc1cc(F)cc(C)c1Oc1ccc(C(C)(C)O)cc1-c1cn(C)c(=O)cc1O[C@H]1CC[C@H](N2C(=O)NC3(CC3)C2=O)CC1 [Example 136, 6-[trans-4-({5-[2-(4-fluoro-2,6-dimethylphenoxy)-5-(2-hydroxypropan-2-yl)phenyl]-1-methyl-2-oxo-1,2-dihydropyridin-4-yl}oxy)cyclohexyl]-4,6-diazaspiro[2.4]heptane-5,7-dione] |
| 1.75 | Cc1cc(F)cc(C)c1Oc1ccc(C(C)(C)O)cc1-c1cn(C)c(=O)cc1O[C@H]1CC[C@H](N2C(=O)[C@@H]3CCCN3C2=O)CC1 [Example 91, (7aS)-2-[trans-4-({5-[2-(4-fluoro-2,6-dimethylphenoxy)-5-(2-hydroxypropan-2-yl)phenyl]-1-methyl-2-oxo-1,2-dihydropyridin-4-yl}oxy)cyclohexyl]tetrahydro-1H-pyrrolo[1,2-c]imidazole-1,3(2H)-dione] |
| 2 | Cc1cc(F)cc(C)c1Oc1ccc(C(C)(C)O)cc1-c1cn(C)c(=O)cc1O[C@H]1CC[C@H](N2CCCOC2=O)CC1 [Example 39, 3-[trans-4-({5-[2-(4-fluoro-2,6-dimethylphenoxy)-5-(2-hydroxypropan-2-yl)phenyl]-1-methyl-2-oxo-1,2-dihydropyridin-4-yl}oxy)cyclohexyl]-1,3-oxazinan-2-one] |
| 3.32 | Cc1cc(F)cc(C)c1Oc1ccc(C(C)(C)O)cc1-c1cn(C)c(=O)cc1O[C@H]1CC[C@H](N2C(=O)C3CC3C2=O)CC1 (relative stereo) [Example 129, 3-[trans-4-({5-[2-(4-fluoro-2,6-dimethylphenoxy)-5-(2-hydroxypropan-2-yl)phenyl]-1-methyl-2-oxo-1,2-dihydropyridin-4-yl}oxy)cyclohexyl]-3-azabicyclo[3.1.0]hexane-2,4-dione] |
| 8.48 | Cc1cc(F)cc(C)c1Oc1ccc(C(C)(C)O)cc1-c1cn(C)c(=O)cc1O[C@H]1CC[C@H](N2CCC(C)(C)C2=O)CC1 [Example 48, 4-{[trans-4-(3,3-dimethyl-2-oxopyrrolidin-1-yl)cyclohexyl]oxy}-5-[2-(4-fluoro-2,6-dimethylphenoxy)-5-(2-hydroxypropan-2-yl)phenyl]-1-methylpyridin-2(1H)-one] |
| 229 | Cc1cc(F)cc(C)c1Oc1ccc(C(C)(C)O)cc1-c1cn(C)c(=O)cc1O[C@H]1CC[C@H](N2NC(=O)CC2=O)CC1 [Example 121, 1-[trans-4-({5-[2-(4-fluoro-2,6-dimethylphenoxy)-5-(2-hydroxypropan-2-yl)phenyl]-1-methyl-2-oxo-1,2-dihydropyridin-4-yl}oxy)cyclohexyl]pyrazolidine-3,5-dione] |

Second part, the molecule before the results:

| Structure (SMILES) | Ki [nM] |
| --- | --- |
| Cc1cc(F)cc(C)c1Oc1ccc(C(C)(C)O)cc1-c1cn(C)c(=O)cc1O[C@H]1CC[C@H](C(=O)N(C)C)CC1 [Example 108, trans-4-({5-[2-(4-fluoro-2,6-dimethylphenoxy)-5-(2-hydroxypropan-2-yl)phenyl]-1-methyl-2-oxo-1,2-dihydropyridin-4-yl}oxy)-N,N-dimethylcyclohexane-1-carboxamide] | 40.1 |
| COC(=O)NC[C@H]1C[C@H](Oc2cc(=O)n(C)cc2-c2cc(C(C)(C)O)ccc2Oc2c(C)cc(F)cc2C)C1 [Example 7, methyl {[trans-3-({5-[2-(4-fluoro-2,6-dimethylphenoxy)-5-(2-hydroxypropan-2-yl)phenyl]-1-methyl-2-oxo-1,2-dihydropyridin-4-yl}oxy)cyclobutyl]methyl}carbamate] | 3.11 |
| Cc1cc(F)cc(C)c1Oc1ccc(C(C)(C)O)cc1-c1cn(C)c(=O)cc1O[C@H]1CC[C@H](NC(=O)C(C)(C)CCCO)CC1 [Example 79, N-[trans-4-({5-[2-(4-fluoro-2,6-dimethylphenoxy)-5-(2-hydroxypropan-2-yl)phenyl]-1-methyl-2-oxo-1,2-dihydropyridin-4-yl}oxy)cyclohexyl]-5-hydroxy-2,2-dimethylpentanamide] | 1.71 |
| CC(=O)N([C@H](C)c1ccc(Oc2c(C)cccc2C)c(-c2cn(C)c(=O)cc2O[C@H]2CC[C@H](NC(=O)C3(C)CC3)CC2)c1)[C@@H](C)c1ccccc1 [Example 116, N-{trans-4-[(5-{5-[(1R)-1-{acetyl[(1S)-1-phenylethyl]amino}ethyl]-2-(2,6-dimethylphenoxy)phenyl}-1-methyl-2-oxo-1,2-dihydropyridin-4-yl)oxy]cyclohexyl}-1-methylcyclopropane-1-carboxamide] | 2.37 |
| Cc1cc(F)cc(C)c1Oc1ccc(C(C)(C)O)cc1-c1cn(C)c(=O)cc1O[C@H]1CC[C@H](C(=O)N2CCCC2)CC1 [Example 62, 5-[2-(4-fluoro-2,6-dimethylphenoxy)-5-(2-hydroxypropan-2-yl)phenyl]-1-methyl-4-{[trans-4-(pyrrolidine-1-carbonyl)cyclohexyl]oxy}pyridin-2(1H)-one] | 15.4 |
| Cc1cc(F)cc(C)c1Oc1ccc(C(C)(C)O)cc1-c1cn(C)c(=O)cc1O[C@H]1CC[C@@H](C(C)(C)O)CC1 [Example 74, 5-[2-(4-fluoro-2,6-dimethylphenoxy)-5-(2-hydroxypropan-2-yl)phenyl]-4-{[cis-4-(2-hydroxypropan-2-yl)cyclohexyl]oxy}-1-methylpyridin-2(1H)-one] | 1040 |
| Cc1cc(F)cc(C)c1Oc1ccc(C(C)(C)O)cc1-c1cn(C)c(=O)cc1O[C@H]1CC[C@H](NC(=O)C2(C)COC2)CC1 [Example 73, N-[trans-4-({5-[2-(4-fluoro-2,6-dimethylphenoxy)-5-(2-hydroxypropan-2-yl)phenyl]-1-methyl-2-oxo-1,2-dihydropyridin-4-yl}oxy)cyclohexyl]-3-methyloxetane-3-carboxamide] | 5.22 |
| Cc1cc(F)cc(C)c1Oc1ccc(C(C)(C)O)cc1-c1cn(C)c(=O)cc1O[C@H]1CC[C@H](N2C(=O)[C@H](C)N(C)C2=O)CC1 [Example 83, (5S)-3-[trans-4-({5-[2-(4-fluoro-2,6-dimethylphenoxy)-5-(2-hydroxypropan-2-yl)phenyl]-1-methyl-2-oxo-1,2-dihydropyridin-4-yl}oxy)cyclohexyl]-1,5-dimethylimidazolidine-2,4-dione] | 2.97 |
| Cc1cc(F)cc(C)c1Oc1ccc(C(C)(C)O)cc1-c1cn(C)c(=O)cc1O[C@H]1CC[C@H](N(C)C(=O)C2(C)CC2)CC1 [Example 58, N-[trans-4-({5-[2-(4-fluoro-2,6-dimethylphenoxy)-5-(2-hydroxypropan-2-yl)phenyl]-1-methyl-2-oxo-1,2-dihydropyridin-4-yl}oxy)cyclohexyl]-N,1-dimethylcyclopropane-1-carboxamide] | 2.89 |
| Cc1cc(F)cc(C)c1Oc1ccc(C(C)(C)O)cc1-c1cn(C)c(=O)cc1O[C@H]1CC[C@H](n2ncccc2=O)CC1 [Example 141, 2-[trans-4-({5-[2-(4-fluoro-2,6-dimethylphenoxy)-5-(2-hydroxypropan-2-yl)phenyl]-1-methyl-2-oxo-1,2-dihydropyridin-4-yl}oxy)cyclohexyl]pyridazin-3(2H)-one] | 4.79 |
| Cc1cc(F)cc(C)c1Oc1ccc(C(C)(C)O)cc1-c1cn(C)c(=O)cc1O[C@H]1C[C@@H](C(C)(C)O)C1 [Example 94, 5-[2-(4-fluoro-2,6-dimethylphenoxy)-5-(2-hydroxypropan-2-yl)phenyl]-4-{[cis-3-(2-hydroxypropan-2-yl)cyclobutyl]oxy}-1-methylpyridin-2(1H)-one] | 134 |
| CC(=O)C(=O)N[C@H]1CC[C@H](Oc2cc(=O)n(C)cc2-c2cc(C(C)(C)O)ccc2Oc2c(C)cc(F)cc2C)CC1 [Example 56, N-[trans-4-({5-[2-(4-fluoro-2,6-dimethylphenoxy)-5-(2-hydroxypropan-2-yl)phenyl]-1-methyl-2-oxo-1,2-dihydropyridin-4-yl}oxy)cyclohexyl]-2-oxopropanamide] | 8.4 |
| Cc1cc(F)cc(C)c1Oc1ccc(C(C)(C)O)cc1-c1cn(C)c(=O)cc1O[C@H]1CC[C@H](NC(=O)C2CC2)CC1 [Example 50, N-[trans-4-({5-[2-(4-fluoro-2,6-dimethylphenoxy)-5-(2-hydroxypropan-2-yl)phenyl]-1-methyl-2-oxo-1,2-dihydropyridin-4-yl}oxy)cyclohexyl]cyclopropanecarboxamide] | 3.01 |
| COCCCN(C(=O)C1(C)CC1)[C@H]1CC[C@H](Oc2cc(=O)n(C)cc2-c2cc(C(C)(C)O)ccc2Oc2c(C)cc(F)cc2C)CC1 [Example 65, N-[trans-4-({5-[2-(4-fluoro-2,6-dimethylphenoxy)-5-(2-hydroxypropan-2-yl)phenyl]-1-methyl-2-oxo-1,2-dihydropyridin-4-yl}oxy)cyclohexyl]-N-(3-methoxypropyl)-1-methylcyclopropane-1-carboxamide] | 8.84 |
| Cc1cccc(C)c1Oc1ccc(C(C)(C)O)cc1-c1cn(C)c(=O)cc1O[C@H]1CC[C@H](N2CCCC2=O)CC1 [Example 27, 5-[2-(2,6-dimethylphenoxy)-5-(2-hydroxypropan-2-yl)phenyl]-1-methyl-4-{[trans-4-(2-oxopyrrolidin-1-yl)cyclohexyl]oxy}pyridin-2(1H)-one] | 0.834 |
| Cc1cc(F)cc(C)c1Oc1ccc(C(C)(C)O)cc1-c1cn(C)c(=O)cc1O[C@H]1CC[C@H](NC(=O)C23CCC(CO)(CC2)CC3)CC1 (relative stereo) [Example 110, N-[trans-4-({5-[2-(4-fluoro-2,6-dimethylphenoxy)-5-(2-hydroxypropan-2-yl)phenyl]-1-methyl-2-oxo-1,2-dihydropyridin-4-yl}oxy)cyclohexyl]-4-(hydroxymethyl)bicyclo[2.2.2]octane-1-carboxamide] | 4.43 |
